Test results from PubChem BioAssay (NCI).
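Five concentrations, 48 hours, 96-well plates. At the GI50, growth is halved. TGI marks complete inhibition of growth.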

tested on: NCI-H322M lung; test: NCI tumour cell line growth inhibition, 48 h

`O=[As](O)(O)c1cc(N=Nc2ccc(-c3ccc(N=Nc4cc([As](=O)(O)O)c(O)cc4O)cc3)cc2)c(O)cc1O` and `CCN(CC)c1ccc(N=Nc2ccc(-c3nc4cccnc4o3)cc2)cc1` cannot be ordered by TGI: greater than 100 µM for the first, greater than 100 µM for the second.

Compared with `CC[N+](CC)=c1ccc2nc3c(cc(N)c4ccccc43)oc-2c1`, `Nc1c(C(=O)c2ccccc2)sc2nc(-c3cccs3)ccc12` is 21-fold higher in TGI: 1.03 µM for the first, 21.9 µM for the second.

First: COc1ccc2c(c1)CCc1c-2n(CCN(C)C)c2ccc(OC)cc12
Second: COc1ccc2c(c1)sc1nc(-c3ccccc3)c(-c3ccsc3)n12
The TGI of the first is lower: 40.1 µM for the first, greater than 100 µM for the second.

`CC1(C)[C@@H]2C[C@H]1c1cnc(-c3ccccn3)cc1C2[C@@H]1c2cc(-c3ccccn3)ncc2[C@@H]2C[C@H]1C2(C)C` (stereo not given in full) and `COc1cc(-c2cnn(C)c2)ccc1Nc1ncc2ccnc(N[C@@H](C)C(C)(C)C)c2n1` cannot be ordered by TGI: greater than 100 µM for the first, greater than 100 µM for the second.

`CC1=C2C(O)C(C(C)CO)C(O)CC2(C)C(O)CC1` (stereo not given) and `C=C1C[C@]23C[C@@]1(O)CC[C@H]2[C@@]12C=C[C@H](O)[C@@](C)(C(=O)O1)[C@H]2[C@@H]3C(=O)O` cannot be ordered by TGI: greater than 100 µM for the first, greater than 100 µM for the second.

`N#CCCc1nc2ccc(Br)cc2c(=O)n1CCO` and `O=c1[nH]nc(Cc2ccc(Cl)cc2)n1O` cannot be ordered by TGI: greater than 100 µM for the first, greater than 100 µM for the second.

`O=C(Nc1cccc(-c2cn3ccccc3n2)c1)c1ccncc1` and `O=C(Nc1ccccc1C(F)(F)F)c1cccc(NC2=C(Cl)C(=O)N(Cc3ccccc3)C2=O)c1` cannot be ordered by TGI: greater than 100 µM for the first, greater than 100 µM for the second.

Going from `CN1CCN(CCSC2Cc3cc(Cl)ccc3Sc3ccccc32)CC1` (stereo not given) to `O=C(C(O)c1cn(Cc2ccccc2)c2ccccc12)N1CCCCC1` (stereo not given), the TGI rises from 23.6 µM to greater than 100 µM.

`COc1cc2ccnc3c2c(c1O)N(C)C=C3` and `O=C1C=CC(=O)c2ncccc21` are within 1.5-fold of each other in TGI: 33.2 µM for the first, 23.2 µM for the second.

`CCOc1ccccc1NC(=O)/C=C1\NC(=O)CS1` and `COC(=O)[C@@H]1N2C(=S)N(c3ccccc3)C(=O)[C@H]2SC1(C)C` cannot be ordered by TGI: greater than 100 µM for the first, greater than 100 µM for the second.

`Nc1nc2c(ncn2C2C=CC(CO)O2)c(=O)[nH]1` (stereo not given) and `NC(=O)c1c[se]c(C2OC(CO)C(O)C2O)n1` (stereo not given) cannot be ordered by TGI: greater than 100 µM for the first, greater than 100 µM for the second.

`COc1ccc(OC)c2cc(Cc3ccc(N(C)C)cc3)c(=O)c(Cc3ccc(N(C)C)cc3)cc12` and `COc1ccc(/C=C/c2cc(OC)c(OC)c(OC)c2)cc1NC(=O)/C=C/c1ccc(F)cc1` cannot be ordered by TGI: greater than 100 µM for the first, greater than 100 µM for the second.

`CC1=CC[C@@H]2CC[C@]3(C)[C@H](CC[C@@H]4[C@@]5(C)CCCNC(C)(C)[C@@H]5CC[C@]43C)[C@H]2[C@@H]1C` and `CC1(C)C=CC[C@]2(C)[C@H]3CC[C@@H]4[C@H]5[C@H](C(=O)/C=C/c6cccnc6)CC[C@]5(CO)CC[C@@]4(C)[C@]3(C)CC[C@@H]12` are within 1.5-fold of each other in TGI: 3.07 µM for the first, 2.9 µM for the second.

Compared with `COC1=CC23C=CC1[C@@H](c1ccccc1)C2=C(C)C(=O)N3C(=O)NC1CCCCC1` (stereo not given in full), `O=C(NNC(=S)Nc1ccccc1)c1csc(NC(=S)NC2CCCCC2)n1` is higher in TGI: 79.2 µM for the first, greater than 100 µM for the second.

`Cc1cc(S(=O)(=O)Nc2nnc3cc(C(F)(F)F)cc(C)n23)c(S)cc1Cl` and `CCOC(=O)c1cn(-c2ccc(Cl)cc2)c(=O)n2c1nc1ccccc12` cannot be ordered by TGI: greater than 100 µM for the first, greater than 100 µM for the second.

`CCOC(=O)c1sc2c(c1OC(=O)c1ccccc1)c(=O)n(-c1ccccc1)c(=S)n2-c1ccccc1` and `CCOC(=O)C(Cc1ccccc1)(Cc1ccc(O)cn1)NC(=O)c1ccccc1` (stereo not given) cannot be ordered by TGI: greater than 100 µM for the first, greater than 100 µM for the second.

`O=[N+]([O-])c1c(/C=N/Nc2ccccc2)oc(-c2ccc3c(c2)OCO3)c1-c1ccc2c(c1)OCO2` and `O=C1OS2(OCc3cccc4cccc2c34)c2ccccc21` (stereo not given) cannot be ordered by TGI: greater than 100 µM for the first, greater than 100 µM for the second.

`CC(=O)CC1CCC(=O)CCC(=O)OC(CC(C)=O)CCC(=O)CCC(=O)O1` (stereo not given) and `CCCC(=O)c1c(NOC2OC(COC(C)=O)C(OC(C)=O)C(OC(C)=O)C2OC(C)=O)nc(OC)n(C)c1=O` (stereo not given) cannot be ordered by TGI: greater than 100 µM for the first, greater than 100 µM for the second.

`N#CC1=CNc2sccc2S1(=O)=O` and `COc1ccc2c(c1)C(=O)CC(N)C2` (stereo not given) cannot be ordered by TGI: greater than 100 µM for the first, greater than 100 µM for the second.

`CN1C2CC(=O)CC1[C@@H]1OC(c3ccccc3)O[C@H]21` (stereo not given in full) and `O=C1[C@@H]2Cc3c([nH]c4ccccc34)C(C3CCCCC3)N2C(=O)[C@@H]2CCCN12` (stereo not given in full) cannot be ordered by TGI: greater than 100 µM for the first, greater than 100 µM for the second.

Going from `Cc1ccc(S(=O)(=O)N2CCN(CCN(C)CCN3CCN(S(=O)(=O)c4ccc(C)cc4)CC3)CC2)cc1` to `CN1CC(c2ccccc2)N(CCCCN2CC(c3ccccc3)N(C)CC2c2ccccc2)CC1c1ccccc1` (stereo not given), the TGI rises from 46.8 µM to greater than 100 µM.

`COc1cc(-c2cc(=O)c3cc4c(cc3[nH]2)OCO4)cc(OC)c1OC` and `COc1cc(C2C3=C(COC3=O)OC(C)(C)Oc3cc4c(cc32)OCO4)cc(OC)c1OC` (stereo not given) cannot be ordered by TGI: greater than 100 µM for the first, greater than 100 µM for the second.

Going from `C=CC(=O)N1CCCC(n2nc(-c3ccc(Oc4ccccc4)cc3)c3c(N)ncnc32)C1` (stereo not given) to `COc1ccc(-c2c(C3=NCCN3)nnn2-c2ccccc2)cc1`, the TGI rises from 12 µM to greater than 100 µM.

Going from `COc1ccc(-c2c(C#N)c(-c3ccccc3)n(NS(=O)(=O)c3ccccc3)c(=O)c2C#N)cc1` to `O=C(O)C1CCc2ccc3ccccc3c2C1c1cccc2ccccc12` (stereo not given), the TGI falls from greater than 100 µM to 32.3 µM.

`c1cnc2c(c1)-n1cccc1C1(CCSCC1)NN2` and `Cc1ccc2c(c1)OC1Nc3ccccc3C1=C2O` (stereo not given) cannot be ordered by TGI: greater than 100 µM for the first, greater than 100 µM for the second.

Compared with `CCCCCCC/C=C/[C@H]1O[C@]23C(=O)C[C@@]4(C[C@@H](OC5OC(CO)C(O)C(O)C5O)C[C@@H]4[C@H]2C=C1C)OC3=O` (stereo not given in full), `Cc1cc2nc3c(C(OC4OC(CO)C(O)C(O)C4O)C(O)CO)nn(-c4ccccc4)c3nc2cc1C` (stereo not given) is higher in TGI: 10.4 µM for the first, greater than 100 µM for the second.

`CCOC(=O)[C@@H](C)C[C@H](Cc1ccccc1)NC(=O)c1csc([C@@H](C[C@H](C(C)C)N(C)C(=O)[C@@H](NC(=O)[C@H]2C[C@H](O[Si](C)(C)C(C)(C)C)CCN2C)C(C)C)OC(C)=O)n1` and `CC(=O)O[C@H]1C(N(C)C(=O)c2ccccc2)CC[C@]2(C)C3CC[C@@]4(C)C(CC(O)[C@@H]4C(C)N(C)C)[C@@H]3CCC12` (stereo not given in full) cannot be ordered by TGI: greater than 8.33 µM for the first, greater than 100 µM for the second.

Compared with `COc1cc2c(cc1C)NC(=O)/C2=C\c1cc(OC)c(OC)c(OC)c1`, `CCN(CC)CCNc1c(OC)cc(C)c2sc3ccccc3c(=O)c12` is lower in TGI: greater than 100 µM for the first, 22.4 µM for the second.

`COS(=O)c1cc(Cl)cc(Cl)c1O` (stereo not given) and `CN(C(=O)c1ccc(Cl)s1)C(=S)N(C)C(=O)c1ccc(Cl)s1` cannot be ordered by TGI: greater than 100 µM for the first, greater than 10 µM for the second.

Compared with `CC[N+](CCCCCCCCCC[N+](CC)(c1ccccn1)c1ccccn1)(c1ccccn1)c1ccccn1`, `CCCCSc1n/c(=C\c2ccc(N(C)C)cc2)c2nnnn12` is higher in TGI: 17.1 µM for the first, greater than 100 µM for the second.

Going from `CC(=O)Oc1cc(C)ccc1[C@]1(C)CC[C@H](C)/C1=C\Br` to `COC(=O)c1cncc2c1CC1C3(C(=O)OC)C=NC(C4C(CO)=CCC43)C21C` (stereo not given), the TGI rises from 20.7 µM to greater than 100 µM.

`OC1OC(c2ccco2)C(F)(F)C(F)(F)C1(F)F` (stereo not given) and `CSC(=NC1=NC(C(F)(F)F)(C(F)(F)F)N=C(c2ccccc2)O1)SC` cannot be ordered by TGI: greater than 100 µM for the first, greater than 100 µM for the second.

`Cc1nc(N)sc1C(=O)/C=C/c1ccc(/C=C/C(=O)c2sc(NC(=O)CCCCCCCCC(=O)Nc3nc(C)c(C(=O)/C=C/c4ccc(/C=C/C(=O)c5sc(N)nc5C)cc4)s3)nc2C)cc1` and `Nc1ccc(C(=O)N/C(=C\C=C\c2ccco2)c2nc3[nH]c(=S)[nH]c(=O)c3[nH]2)cc1` cannot be ordered by TGI: greater than 100 µM for the first, greater than 100 µM for the second.

First: CC(=O)O/N=C/c1ncccc1CO
Second: COC(=O)CCC/C=C\C[C@H]1C=CC(=O)/C1=C/C[C@@H](O)CCc1cccc(C(F)(F)F)c1
The TGI of the first is higher: greater than 100 µM for the first, 17.9 µM for the second.

`NC(N)=N/N=C(/c1nc2ccc([N+](=O)[O-])cc2[nH]c1=O)C(O)c1ccco1` (stereo not given) and `CCN(CC)CCC1CC/C(=C\c2ccc(OC)cc2)C1=O` (stereo not given) cannot be ordered by TGI: greater than 100 µM for the first, greater than 100 µM for the second.

Compared with `CC[N+](CC)=c1ccc2nc3c(cc(N)c4ccccc43)oc-2c1`, `Nc1c(C(=O)c2ccccc2)sc2nc(-c3cccs3)ccc12` is 3.1-fold higher in GI50: 0.277 µM for the first, 0.865 µM for the second.

First: COc1cc(-c2cnn(C)c2)ccc1Nc1ncc2ccnc(N[C@@H](C)C(C)(C)C)c2n1
Second: COc1ccc(/C=C/c2cc(OC)c(OC)c(OC)c2)cc1NC(=O)/C=C/c1ccc(F)cc1
The GI50 of the first is higher: greater than 100 µM for the first, 6.84 µM for the second.

`CC1=CC[C@@H]2CC[C@]3(C)[C@H](CC[C@@H]4[C@@]5(C)CCCNC(C)(C)[C@@H]5CC[C@]43C)[C@H]2[C@@H]1C` and `CC1(C)C=CC[C@]2(C)[C@H]3CC[C@@H]4[C@H]5[C@H](C(=O)/C=C/c6cccnc6)CC[C@]5(CO)CC[C@@]4(C)[C@]3(C)CC[C@@H]12` are within 1.5-fold of each other in GI50: 1.68 µM for the first, 1.52 µM for the second.

Compared with `O=C(Nc1ccccc1C(F)(F)F)c1cccc(NC2=C(Cl)C(=O)N(Cc3ccccc3)C2=O)c1`, `COc1ccc2c(c1)sc1nc(-c3ccccc3)c(-c3ccsc3)n12` is higher in GI50: 19.1 µM for the first, greater than 100 µM for the second.

First: C=CC(=O)N1CCCC(n2nc(-c3ccc(Oc4ccccc4)cc3)c3c(N)ncnc32)C1 (stereo not given)
Second: CCOC(=O)[C@@H](C)C[C@H](Cc1ccccc1)NC(=O)c1csc([C@@H](C[C@H](C(C)C)N(C)C(=O)[C@@H](NC(=O)[C@H]2C[C@H](O[Si](C)(C)C(C)(C)C)CCN2C)C(C)C)OC(C)=O)n1
The GI50 of the first is 2.9-fold lower: 0.11 µM for the first, 0.318 µM for the second.

`CCCCCCC/C=C/[C@H]1O[C@]23C(=O)C[C@@]4(C[C@@H](OC5OC(CO)C(O)C(O)C5O)C[C@@H]4[C@H]2C=C1C)OC3=O` (stereo not given in full) and `COC(=O)CCC/C=C\C[C@H]1C=CC(=O)/C1=C/C[C@@H](O)CCc1cccc(C(F)(F)F)c1` are within 1.5-fold of each other in GI50: 5.16 µM for the first, 5.17 µM for the second.

First: COc1cc2c(cc1C)NC(=O)/C2=C\c1cc(OC)c(OC)c(OC)c1
Second: CC(=O)Oc1cc(C)ccc1[C@]1(C)CC[C@H](C)/C1=C\Br
The GI50 of the first is higher: greater than 100 µM for the first, 7.49 µM for the second.

`CC[N+](CCCCCCCCCC[N+](CC)(c1ccccn1)c1ccccn1)(c1ccccn1)c1ccccn1` gave a GI50 of 3.19 µM.
